Measurements as given in US11161864B2, “Sting agonists” (Venenum Biodesign, LLC, priority 2018, dated 2021).

Legend:
[1] = biological target: T1, HAQ STING protein, THP1 Dual (HAQ) human cells (Homo sapiens (Human), UniProt Q86WV6, G230A/H232R/R293Q/R71H); experiment: cell-based; details: Human HAQ Agonist EC50, 5 hrs
[2] = biological target: T2, wildtype (WT) STING protein, THP1 Dual (WT) human cells (Homo sapiens (Human), UniProt Q86WV6, H232R)
[3] = biological target: T1, HAQ STING protein, THP1 Dual (HAQ) human cells
[4] = test system: STING pathway, RAW-Dual Reporter cell line; experiment: cells; details: for EC50: read-out: Murine Agonist EC50
[5] = biological target: T2, wildtype (WT) STING protein, THP1 Dual (WT) human cells; experiment: cell-based; details: Human WT Agonist EC50, 5 hrs

T2 sequence (Q86WV6 whole entry H232R): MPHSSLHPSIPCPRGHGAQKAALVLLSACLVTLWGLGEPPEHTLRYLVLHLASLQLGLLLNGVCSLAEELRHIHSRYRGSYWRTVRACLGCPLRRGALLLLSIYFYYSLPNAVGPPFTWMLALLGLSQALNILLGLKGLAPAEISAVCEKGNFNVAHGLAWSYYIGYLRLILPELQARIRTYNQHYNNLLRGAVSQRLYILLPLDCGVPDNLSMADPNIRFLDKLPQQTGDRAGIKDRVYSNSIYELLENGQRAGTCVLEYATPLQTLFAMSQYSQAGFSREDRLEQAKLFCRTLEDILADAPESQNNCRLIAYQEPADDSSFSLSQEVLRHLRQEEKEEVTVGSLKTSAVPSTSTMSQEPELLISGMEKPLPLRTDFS
T1 sequence (Q86WV6 whole entry R71H/G230A/H232R/R293Q): as the sequence (Q86WV6 whole entry H232R) above, with R71H, G230A, R293Q counted along it

Row | Human WT Agonist Efficacy ([2]; 5 hrs) [%] | Human HAQ Agonist Efficacy ([3]; 5 hrs) [%] | EC50 ([4]; 5 hrs) [µM] | Human WT Agonist Efficacy [2] [%] | Human HAQ Agonist Efficacy [3] [%] | SMILES | EC50 [1] [µM] | Murine Agonist Efficacy ([4]; 5 hrs) [%] | EC50 [5] [µM] | Murine Agonist Efficacy [4] [%] | EC50 [4] [µM]
1 | <100 | >100 | 100 to 999 | – | – | Nc1nc2c(ncn2[C@@H]2O[C@@H]3COP(=O)(S)O[C@H]4C[C@H](C4)n4c(nc5cncnc54)COP(=O)(S)O[C@@H]2C3)c(=O)[nH]1 (single isomer, unassigned) [Example 35D] | – | <100 | – | – | –
2 | >100 | >100 | < 10 | – | – | Nc1nc2c(ncn2[C@@H]2O[C@@H]3COP(=O)(S)OCCCn4c(nc5cncnc54)COP(=O)(S)O[C@@H]2[C@@H]3F)c(=O)[nH]1 (single isomer, unassigned) [Example 18C] | – | >100 | – | – | –
3 | <100 | >100 | 100 to 999 | – | – | Nc1nc2c(ncn2[C@@H]2O[C@@H]3COP(=O)(S)OCCCn4c(nc5cncnc54)COP(=O)(S)O[C@@H]2[C@@H]3F)c(=O)[nH]1 (single isomer, unassigned) [Example 18D] | – | <100 | – | – | –
4 | – | – | – | <100 | <100 | Nc1nc2c(ncn2[C@@H]2O[C@@H]3COP(=O)(S)OCCn4nc(-c5ccncc5)nc4COP(=O)(S)O[C@@H]2[C@@H]3F)c(=O)[nH]1 (stereo partly drawn) [Example 34D, (1S,17R,19R,20R)-19-(2-Amino-6-oxo-6,9-dihydro-1H-purin-9-yl)-20-fluoro-8-(pyridin-4-yl)-3,14-disulfanyl-2,4,13,15,18-pentaoxa-7,9,10-triaza-3lambda5,14lambda5-diphosphatricyclo[15.2.1.06,10]icosa-6,8-diene-3,14-dione] | – | <100 | – | – | –
5 | – | – | < 10 | <100 | >100 | Nc1nc2c(ncn2[C@@H]2O[C@@H]3COP(=O)(S)OCCn4nc(-c5cncs5)nc4COP(=O)(S)O[C@@H]2[C@@H]3F)c(=O)[nH]1 (single isomer, unassigned) [Example 16D] | – | >100 | – | – | –
6 | – | – | < 10 | >100 | >100 | Nc1nc2c(ncn2[C@@H]2O[C@@H]3COP(=O)(S)OCCn4c(nc5cncnc54)COP(=O)(S)O[C@@H]2C3)c(=O)[nH]1 (single isomer, unassigned) [Example 22D] | – | >100 | – | – | –
7 | – | – | – | <100 | <100 | Nc1nc2c(ncn2[C@@H]2O[C@@H]3COP(=O)(S)OCCn4c(nc5c(=O)[nH]cnc54)COP(=O)(S)O[C@@H]2[C@@H]3F)c(=O)[nH]1 (stereo partly drawn) [Example 3D, (1S,21R,23R,24R)-23-(2-Amino-6-oxo-6,9-dihydro-1H-purin-9-yl)-24-fluoro-3,18-disulfanyl-2,4,17,19,22-pentaoxa-7,10,12,14-tetraaza-3lambda5,18lambda5-diphosphatetracyclo[19.2.1.06,14.08,13]tetracosa-6,8(13),11-triene-3,9,18-trione] | – | <100 | – | – | –
8 | – | – | 10 to 99.9 | <100 | >100 | Nc1nc2c(ncn2[C@@H]2O[C@@H]3COP(=O)(S)OCCn4c(nc5cncnc54)COP(=O)(S)O[C@@H]2C3)c(=O)[nH]1 (single isomer, unassigned) [Example 22C] | – | <100 | – | – | –
9 | <100 | >100 | – | – | – | Nc1nc2c(ncn2[C@@H]2O[C@@H]3COP(=O)(S)OCCn4c(nc5cncnc54)COP(=O)(S)O[C@@H]2[C@H]3F)c(=O)[nH]1 (stereo partly drawn) [Example 25C, (1S,21R,23R,24S)-23-(2-Amino-6-oxo-6,9-dihydro-1H-purin-9-yl)-24-fluoro-3,18-disulfanyl-2,4,17,19,22-pentaoxa-7,10,12,14-tetraaza-3lambda5,18lambda5-diphosphatetracyclo[19.2.1.06,14.08,13]tetracosa-6,8,10,12-tetraene-3,18-dione] | – | <100 | – | – | –

Row | SMILES | Human WT Agonist Efficacy ([2]; 5 hrs) [%] | Human HAQ Agonist Efficacy ([3]; 5 hrs) [%] | EC50 ([4]; 5 hrs) [µM] | Human WT Agonist Efficacy [2] [%] | Human HAQ Agonist Efficacy [3] [%] | EC50 [1] [µM] | Murine Agonist Efficacy ([4]; 5 hrs) [%] | EC50 [5] [µM] | Murine Agonist Efficacy [4] [%] | EC50 [4] [µM]
10 | Nc1nc2c(ncn2[C@@H]2O[C@@H]3COP(=O)(S)OCCn4c(nc5cncnc54)COP(=O)(S)O[C@@H]2[C@@H]3F)c(=O)[nH]1 (single isomer, unassigned) [Example 1A] | <100 | >100 | < 10 | – | – | 10 to 99.9 | >100 | 10 to 99.9 | – | –
11 | Nc1nc2c(ncn2[C@@H]2O[C@@H]3COP(=O)(S)OCCn4c(nc5cncnc54)COP(=O)(S)O[C@@H]2[C@@H]3F)c(=O)[nH]1 (single isomer, unassigned) [Example 1D] | <100 | >100 | < 10 | – | – | < 10 | >100 | 10 to 99.9 | – | –
12 | N#Cc1cnc2c(c1)nc1n2CCOP(=O)(S)OC[C@H]2O[C@@H](n3cnc4c(=O)[nH]c(N)nc43)[C@H](OP(=O)(S)OC1)[C@@H]2F (single isomer, unassigned) [Example 38B] | – | – | – | <100 | >100 | – | – | – | >100 | 10 to 99.9

Read-outs that look alike come from different tables or passages of the source.
